{"source": "PubChem BioAssay AID2060328", "about": "(Molecular Pharmacology Branch, DTP, NCI, 2025)", "tested_on": "MDA-MB-231 multicell spheroids, viability (%T/C)", "test": "Anticancer human tumor MDA-MB-231 cell line growth inhibition [IpAb];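 also: viability read after seven days of drug exposure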", "conditions": "compound alone; run of 06/01/2021", "excerpt": "Combinatorial screen of targeted agents with ipatasertib and abemaciclib in multi-cell type tumor spheroids\nA high-throughput screen of multi-cell type tumor spheroids was designed to identify active combinations of targeted small molecules and ipatasertib or abemaciclib. Complex spheroids include a stromal component modeled by human endothelial cells (HUVEC) and fibroblasts modeled by human mesenchymal stem cells (MSCs). The concentration ranges selected for each drug and investigational agent were based upon clinically achievable concentrations if the clinical Cmax of the agent was known.\nCompounds. […] If the clinical Cmax for an agent had not been determined, the highest concentration tested was 10 microM.\nNCI60 Cell Culture. […] The optimal seeding densities for each of the cell lines at each time point assessed were determined prior to performing the concentration response studies. […]", "note": "Some entries of the source have several records that differ or are many. Only these are listed. The source may hold further records. The records of an entry repeat one measurement across runs, samples, wells, individuals or studies.", "data": [{"smiles": "CCN1CCN(Cc2ccc(Nc3ncc(F)c(-c4cc(F)c5nc(C)n(C(C)C)c5c4)n3)nc2)CC1", "values": [{"measurement": "IC50", "value": "263 nM, 354 nM, 526 nM, 247 nM, 302 nM, 205 nM, 376 nM, 228 nM, 226 nM, > 1 µM, 285 nM"}]}]}
